Results from the supplement of paper PMC4604168 (melanoma cell lines).
This is one part of the list. Single values are uncertain, as repeats are few or missing.

Assays:
Assay in all cases: cell count relative to DMSO control; melanoma cells; higher = more viable cells
Details in all cases: library dose: low library concentration; 72 h
MZ2-MEL = system: MZ2-MEL
MeWo = system: MeWo
RPMI7951 = system: RPMI7951
RVH-421 = system: RVH-421
SkMel28 = system: SkMel28
SkMel2 = system: SkMel2
SkMel30 = system: SkMel30
SkMel5 = system: SkMel5
UACC257 = system: UACC257
UACC62 = system: UACC62
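Note: cell number obtained by counting DAPI-stained nuclei in high-throughput microscope images with image analysis software, screen run in 1,536-well plates.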

SMILES | cell count (MZ2-MEL) [%] | cell count (MeWo) [%] | cell count (RPMI7951) [%] | cell count (RVH-421) [%] | cell count (SkMel28) [%] | cell count (SkMel2) [%] | cell count (SkMel30) [%] | cell count (SkMel5) [%] | cell count (UACC257) [%] | cell count (UACC62) [%]
Nc1ccn([C@@H]2O[C@H](CO)[C@@H](O)C2(F)F)c(=O)n1 [gemcitabine] + COc1cc(Nc2ncc(F)c(Nc3ccc4c(n3)NC(=O)C(C)(C)O4)n2)cc(OC)c1OC [Tamatinib] (first compound 0.0004 µM, partner dose 0.4 µM) | 84.8 | 90.8 | 79.3 | 114 | 81.5 | 100 | 93.2 | 94.6 | 90.4 | 81.2
CC(=O)O[C@@]12CO[C@@H]1C[C@H](O)[C@@]1(C)C(=O)[C@H](O)C3=C(C)[C@@H](OC(=O)[C@H](O)[C@@H](NC(=O)OC(C)(C)C)c4ccccc4)C[C@@](O)([C@@H](OC(=O)c4ccccc4)[C@H]21)C3(C)C [Docetaxel] + CO[C@@H]1[C@H](N(C)C(=O)c2ccccc2)C[C@H]2O[C@]1(C)n1c3ccccc3c3c4c(c5c6ccccc6n2c5c31)C(=O)NC4 [Midostaurin] (first compound 0.0001 µM, partner dose 0.08 µM) | 41.2 | 29.7 | 30.1 | 54.7 | 35 | 43 | 40.2 | 63.9 | 29.6 | 43.2
CC(=O)O[C@@]12CO[C@@H]1C[C@H](O)[C@@]1(C)C(=O)[C@H](O)C3=C(C)[C@@H](OC(=O)[C@H](O)[C@@H](NC(=O)OC(C)(C)C)c4ccccc4)C[C@@](O)([C@@H](OC(=O)c4ccccc4)[C@H]21)C3(C)C [Docetaxel] + O=C(Nc1cccc(Cl)c1)Nc1ncc(CCNc2ncnc3ccsc23)s1 [SNS314] (first compound 0.0001 µM, partner dose 0.0008 µM) | 47 | 49.7 | 43.3 | 63.3 | 50.8 | 47.5 | 33.6 | 69 | 37.1 | 54.2
CC(=O)c1c(C)c2cnc(Nc3ccc(N4CCNCC4)cn3)nc2n(C2CCCC2)c1=O [palbociclib] + CC(C)(C)c1cnc(CSc2cnc(NC(=O)C3CCNCC3)s2)o1 [SNS-032] (first compound 0.04 µM, partner dose 0.01 µM) | 79.6 | 86.8 | 90.9 | 73.6 | 71.7 | 81.7 | 90.2 | 81.5 | 92.3 | 74.9
Nc1ccn([C@@H]2O[C@H](CO)[C@@H](O)C2(F)F)c(=O)n1 [gemcitabine] + Oc1nc(-c2ccc(C(F)(F)F)cc2)nc2c1CSCC2 [XAV939] (first compound 0.0004 µM, partner dose 2 µM) | 92.8 | 105 | 90.6 | 83.4 | 112 | 106 | 119 | 90.7 | 117 | 112
Nc1nc(F)nc2c1ncn2[C@@H]1O[C@H](CO)[C@@H](O)[C@@H]1O [fludarabine] + C=CCn1c(=O)c2cnc(Nc3ccc(N4CCN(C)CC4)cc3)nc2n1-c1cccc(C(C)(C)O)n1 [MK1775] (first compound 0.2 µM, partner dose 0.02 µM) | 95.4 | 26.8 | 101 | 98.4 | 57.1 | 4.77 | 15.9 | 47 | 70.7 | 77.3
CC(=O)c1c(C)c2cnc(Nc3ccc(N4CCNCC4)cn3)nc2n(C2CCCC2)c1=O [palbociclib] + Cc1ccc(NC(=O)c2cccc(N(C)C)c2)cc1NC(=O)c1ccc(O)cc1 [ZM336372] (first compound 0.04 µM, partner dose 2 µM) | 66.8 | 75 | 60.2 | 82.8 | 73.6 | 94.8 | 66.9 | 74.9 | 75.8 | 76.5
Nc1nc(F)nc2c1ncn2[C@@H]1O[C@H](CO)[C@@H](O)[C@@H]1O [fludarabine] + COc1cc(N2CCC(N3CCN(C)CC3)CC2)ccc1Nc1ncc(Cl)c(Nc2ccccc2S(=O)(=O)C(C)C)n1 [NVP-TAE684] (first compound 0.2 µM, partner dose 0.08 µM) | 106 | 28.6 | 89.1 | 119 | 71.7 | 6.22 | 16.9 | 48.2 | 60.6 | 87.8
CC(=O)O[C@@]12CO[C@@H]1C[C@H](O)[C@@]1(C)C(=O)[C@H](O)C3=C(C)[C@@H](OC(=O)[C@H](O)[C@@H](NC(=O)OC(C)(C)C)c4ccccc4)C[C@@](O)([C@@H](OC(=O)c4ccccc4)[C@H]21)C3(C)C [Docetaxel] + OCCn1cc(-c2cnc3nnn(Cc4ccc5ncccc5c4)c3n2)cn1 [PF04217903] (first compound 0.0001 µM, partner dose 1 µM) | 51.7 | 41.8 | 31.5 | 70.6 | 27.5 | 37.3 | 34.6 | 72.8 | 41.1 | 44.2
Nc1ccn([C@@H]2O[C@H](CO)[C@@H](O)C2(F)F)c(=O)n1 [gemcitabine] + Oc1cc(-c2nc(-c3ccccc3)[nH]c2-c2ccncc2)ccc1Cl [L779450] (first compound 0.0004 µM, partner dose 0.2 µM) | 78.4 | 99.4 | 81.2 | 106 | 81.7 | 96.1 | 105 | 114 | 108 | 85.8
Nc1ccn([C@@H]2O[C@H](CO)[C@@H](O)C2(F)F)c(=O)n1 [gemcitabine] + COc1cc2c(Oc3ccc4[nH]c(C)cc4c3F)ncnc2cc1OCCCN1CCCC1 [cediranib] (first compound 0.0004 µM, partner dose 0.4 µM) | 99.8 | 98.1 | 100 | 91.9 | 106 | 102 | 94.8 | 87.9 | 79.3 | 86.3
Nc1ncn([C@H]2C[C@H](O)[C@@H](CO)O2)c(=O)n1 [decitabine] + Cc1ccc(NC(=O)c2cccc(N(C)C)c2)cc1NC(=O)c1ccc(O)cc1 [ZM336372] (first compound 0.1 µM, partner dose 2 µM) | 62 | 90.5 | 59.5 | 74.2 | 81.3 | 110 | 95.2 | 87.7 | 92.2 | 70.1
Nc1nc(F)nc2c1ncn2[C@@H]1O[C@H](CO)[C@@H](O)[C@@H]1O [fludarabine] + CCCCCCCCCCCC1=C(O)C(=O)C=C(O)C1=O [Embelin] (first compound 0.2 µM, partner dose 1.2 µM) | 104 | 32.2 | 69.8 | 83.6 | 79.5 | 3.76 | 14.8 | 56.3 | 70.3 | 90.8
CC(=O)O[C@@]12CO[C@@H]1C[C@H](O)[C@@]1(C)C(=O)[C@H](O)C3=C(C)[C@@H](OC(=O)[C@H](O)[C@@H](NC(=O)OC(C)(C)C)c4ccccc4)C[C@@](O)([C@@H](OC(=O)c4ccccc4)[C@H]21)C3(C)C [Docetaxel] + O=c1cc(-c2cccc3c2Sc2ccccc2S3)oc(N2CCOCC2)c1 [KU55933] (first compound 0.0001 µM, partner dose 1 µM) | 46.9 | 48.6 | 37.8 | 45.6 | 43.1 | 44.5 | 31 | 85.7 | 41.3 | 34.7
Nc1ccn([C@@H]2O[C@H](CO)[C@@H](O)C2(F)F)c(=O)n1 [gemcitabine] + C=CCn1c(=O)c2cnc(Nc3ccc(N4CCN(C)CC4)cc3)nc2n1-c1cccc(C(C)(C)O)n1 [MK1775] (first compound 0.0004 µM, partner dose 0.02 µM) | 90.7 | 95.1 | 91.8 | 92.5 | 91.9 | 82.3 | 80.5 | 75.7 | 86.8 | 74.7
Nc1ncn([C@H]2C[C@H](O)[C@@H](CO)O2)c(=O)n1 [decitabine] + O=C(Nc1cccc(Cl)c1)Nc1ncc(CCNc2ncnc3ccsc23)s1 [SNS314] (first compound 0.1 µM, partner dose 0.0008 µM) | 80.4 | 90.3 | 75.2 | 81.9 | 85 | 95.4 | 95.9 | 107 | 87.1 | 79.6
CC(=O)c1c(C)c2cnc(Nc3ccc(N4CCNCC4)cn3)nc2n(C2CCCC2)c1=O [palbociclib] + O=C(Nc1cccc(Cl)c1)Nc1ncc(CCNc2ncnc3ccsc23)s1 [SNS314] (first compound 0.04 µM, partner dose 0.0008 µM) | 80.3 | 77.6 | 79.5 | 103 | 84.1 | 72.3 | 93.4 | 73.1 | 73.4 | 83.1
Nc1ncn([C@H]2C[C@H](O)[C@@H](CO)O2)c(=O)n1 [decitabine] + O=C(O)c1ccc(-c2c[nH]c3ncc(-c4ccccc4)cc23)cc1C1CCCC1 [GSK650394] (first compound 0.1 µM, partner dose 0.16 µM) | 79.9 | 86.9 | 79.9 | 95.3 | 86.1 | 93.3 | 128 | 93.7 | 73.3 | 76.7
